Experiments:
[1] = target: T1, serpina3n-HA secreted by stably transfected Jurkat cells (clone SerE12-HA), in conditioned medium (mouse, UniProt Q91WP6 21-418); assay: complex formation on immunoblot and enzymatic activity assay with conditioned medium of transfected Jurkat cells
T1 construct: Secreted into Opti-MEM I medium, which was concentrated 5x and used without purification; also called SerE12-HA conditioned medium; serpina3n expressed in Jurkat cells; not shown: C-terminal HA tag
T1 sequence: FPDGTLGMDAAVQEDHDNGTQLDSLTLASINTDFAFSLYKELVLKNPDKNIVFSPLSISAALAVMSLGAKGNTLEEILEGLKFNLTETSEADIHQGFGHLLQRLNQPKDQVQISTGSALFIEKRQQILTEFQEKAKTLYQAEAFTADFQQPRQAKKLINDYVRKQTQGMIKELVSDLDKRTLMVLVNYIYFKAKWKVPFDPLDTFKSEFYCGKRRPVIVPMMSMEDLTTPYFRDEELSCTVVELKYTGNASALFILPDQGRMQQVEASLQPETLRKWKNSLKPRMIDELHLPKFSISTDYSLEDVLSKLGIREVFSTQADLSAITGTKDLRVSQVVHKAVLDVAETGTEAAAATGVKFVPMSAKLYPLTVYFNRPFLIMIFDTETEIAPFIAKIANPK
Procedure: 5 x10⁶ stable transfected cells (clone SerE12-HA) were incubated overnight in 1 ml OPTI-MEM I medium. Serpina3n in the cell lysate (L) and in the conditioned medium (CM) was detected by immunoblotting with anti-HA antibody. […] Formation of serpina3n-granzyme B complex was detected by SDS-PAGE and immunoblotting with an anti-granzyme B antibody.
FIG. 6C is a graph showing serpina3n-HA inhibits granzyme B enzymatic activity. Granzyme B (212 ng) was pre-incubated for 1 hr at 37° C. with increasing volumes of conditioned medium from SerE12-HA cells or pcDNA3-transfected cells, and then granzyme B activity was measured. Data are expressed as percentage of the activity of granzyme B pre-incubated with the medium of pcDNA3-transfected cells and are the mean±standard deviation of three independent experiments performed in triplicate.

[2] = target: T2, mouse serpina3n secreted by Sertoli cells (in Sertoli cell-conditioned medium, SCCM) (mouse, UniProt Q91WP6 21-418); assay: Western blot with anti-granzyme B antibody after 2 h incubation of granzyme B with SCCM; SDS-stable higher molecular mass band
T2 construct: Native serpin secreted by BALB/c mouse Sertoli cells and tested as 10x concentrated conditioned medium, not purified; Identified in the complex by mass spectrometry (gi|6678093); Said to be glycosylated; also called spi2.2
T2 sequence: T1 sequence
Procedure: FIGS. 4A-4C are images of Western blots showing that granzyme B is covalently modified by a factor (i) secreted by cultured Sertoli cells and (ii) is not SPI-6. FIGS. 4A-4C show Western blots of granzyme B incubated for two hours with HAM's control media, SCCM, or PBS. […] Each lane is as follows. […] Each lane of FIGS. 4B and 4C is as follows. 1) HAM's, 2) SCCM, 3) HAM's+granzyme B, 4) SCCM+granzyme B, 5) granzyme B, 6) mouse CTL lysate. The arrow indicates the higher molecular mass complex that appears when granzyme B is incubated with SCCM and that is not detected by the SPI-6 antibody.

binding result [1]: binds
binding result [2]: binds
B1: human granzyme B purified from the cytolytic granules of YT INDY cells (enzyme)
chain: not shown
notes: The mass spectrometry hit is gi|4758494, granzyme B precursor (Homo sapiens); also called grB; purified human granzyme B
